Lines with a small IC50 respond at low doses; a fit beyond the top or the lowest dose is shown as a bound at that dose. AUC sums up the same curve from the lowest dose to the 256-fold higher top dose; it is 1 without any effect and falls as sensitivity rises. For part of these data: The top dose, if marked as inferred, was calculated from the reported fits.
Key:
Experiment in all cases: Viability of human cancer cell lines after 72 h of drug (GDSC screen)
[1] = compound: COc1cc([C@@H]2c3cc4c(cc3[C@@H](O[C@@H]3O[C@@H]5CO[C@@H](C)O[C@H]5[C@H](O)[C@H]3O)[C@H]3COC(=O)[C@H]23)OCO4)cc(OC)c1O [Etoposide]; settings: top dose 16 µM
Protocol: (§1)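 Human cancer cell lines in 384-well plates, medium with 10% serum, drug for 72 h over a 256-fold dose range (nine 2-fold or five 4-fold steps up to the top dose). Adherent lines were fixed and stained with the nucleic acid dye Syto60, suspension lines read with resazurin; signal relative to control wells, capped at 0 and 100%. One two-parameter sigmoid per drug and line, fitted in a mixed model over all curves with the slope shared within a line.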

[2] = compound: C=C(c1ccc(C(=O)O)cc1)c1cc2c(cc1C)C(C)(C)CCC2(C)C [Bexarotene]; settings: top dose 8 µM
Protocol: as §1

[3] = compound: Cc1ccc2nc(NCCN)c3ncc(C)n3c2c1 [BMS-345541]; settings: top dose 16 µM
Protocol: as §1

[4] = compound: COc1cc(C(=O)NC2CCN(C)CC2)ccc1Nc1ncc2c(n1)N(C1CCCC1)C(C)CC(=O)N2C [NPK76-II-72-1]; settings: top dose 10.24 µM; top dose inferred
Protocol: as §1

[5] = compound: O=C(O)c1ccc(-c2c[nH]c3ncc(-c4ccccc4)cc23)cc1C1CCCC1 [GSK-650394]; settings: top dose 16 µM; top dose inferred
Protocol: as §1

[6] = compound: COc1ccc(C(=O)CC2(O)C(=O)Nc3c(Cl)ccc(Cl)c32)cc1 [YK 4-279]; settings: top dose 10 µM
Protocol: as §1

[7] = compound: NC(=O)Nc1cc(-c2cccc(F)c2)sc1C(=O)N[C@H]1CCCNC1 [AZD7762]; settings: top dose 2 µM
Protocol: as §1

[8] = compound: Oc1nc(-c2ccc(C(F)(F)F)cc2)nc2c1CSCC2 [XAV 939]; settings: top dose 5 µM; top dose inferred
Protocol: as §1

Cell Line	AUC [1]	IC50 [1] [µM]	AUC [2]	IC50 [2] [µM]	AUC [3]	IC50 [3] [µM]	AUC [4]	IC50 [4] [µM]	AUC [5]	IC50 [5] [µM]	AUC [6]	IC50 [6] [µM]	AUC [7]	IC50 [7] [µM]	AUC [8]	IC50 [8] [µM]
GB-1 (glioma, adherent)	0.559	1.49	0.903	> 8	0.911	> 16	0.806	6.36	0.706	4.26	0.852	> 10	0.799	1.17	0.893	> 5
GI-1 (glioma, adherent)	0.463	0.794	0.901	> 8	0.881	15.5	0.889	> 10.2	0.907	> 16	0.54	0.797	0.604	0.238	0.978	> 5
GI-ME-N (neuroblastoma, adherent)	0.715	5.12	0.759	3.78	0.847	> 16	0.703	2.96	0.959	> 16	0.624	1.56	0.707	0.601	0.895	> 5
GOTO (neuroblastoma, adherent)	0.809	9.76	0.983	> 8	0.925	> 16	0.884	> 10.2	0.957	> 16	0.563	0.951	0.354	0.0466	0.981	> 5
GR-ST (lymphoblastic leukaemia, suspension)	0.779	7.97	0.974	> 8	0.82	11.8	0.533	0.801	0.816	11.3	0.762	4.29	0.574	0.208	0.958	> 5
GT3TKB (stomach, adherent)	0.342	0.387	0.891	7.42	0.972	> 16	0.933	> 10.2	0.892	14.9	0.571	0.953	0.929	> 2	0.715	1.16
H9 (lymphoid neoplasm, suspension)	0.554	1.36	0.991	> 8	0.831	7.74	0.784	3.54	0.713	3.5	0.843	5.32	0.573	0.191	0.99	> 5
H513 (mesothelioma, semi-adherent)	0.93	> 16	0.986	> 8	0.945	> 16	0.984	> 10.2	0.985	> 16	0.866	> 10	0.866	> 2	0.972	> 5
H2369 (mesothelioma, adherent)	0.665	2.93	0.917	> 8	0.975	> 16	0.985	> 10.2	0.71	4	0.703	2.39	0.649	0.328	0.927	> 5
H2461 (mesothelioma, adherent)	0.92	> 16	0.944	> 8	0.983	> 16	0.978	> 10.2	0.949	> 16	0.755	4.17	0.665	0.405	0.977	> 5
H2595 (mesothelioma, adherent)	0.558	1.54	0.966	> 8	0.919	> 16	0.947	> 10.2	0.93	> 16	0.714	3.25	0.904	> 2	0.962	> 5
H2722 (mesothelioma, adherent)	0.796	9.13	0.912	> 8	0.921	> 16	0.953	> 10.2	0.923	> 16	0.808	6.39	0.776	0.957	0.982	> 5
H2731 (mesothelioma, adherent)	0.957	> 16	0.97	> 8	0.87	> 16	0.606	1.31	0.977	> 16	0.631	1.52	0.541	0.165	0.971	> 5
H2869 (mesothelioma, adherent)	0.851	> 16	0.973	> 8	0.864	> 16	0.882	> 10.2	0.918	> 16	0.862	> 10	0.783	1.07	0.953	> 5
H3118 (head and neck, adherent)	0.396	0.503	0.845	6.6	0.794	8.12	0.8	5.47	0.805	8.98	0.708	2.56	0.494	0.12	0.926	> 5
H3255 (lung adenocarcinoma, adherent)	0.701	4.13	0.968	> 8	0.938	> 16	0.914	> 10.2	0.92	> 16	0.829	7.94	0.855	> 2	0.921	> 5
HA7-RCC (kidney, adherent)	0.811	9.61	0.965	> 8	0.894	> 16	0.93	> 10.2	0.932	> 16	0.829	7.13	0.72	0.565	0.94	> 5

Cell Line	AUC [1]	IC50 [1] [µM]	AUC [2]	IC50 [2] [µM]	AUC [3]	IC50 [3] [µM]	AUC [4]	IC50 [4] [µM]	AUC [5]	IC50 [5] [µM]	AUC [6]	IC50 [6] [µM]	AUC [7]	IC50 [7] [µM]	AUC [8]	IC50 [8] [µM]
HAL-01 (lymphoblastic leukaemia, suspension)	0.681	2.99	0.981	> 8	0.704	3.47	0.897	10.2	0.874	12.6	0.658	1.62	0.48	0.111	0.978	> 5
HARA (lung squamous cell carcinoma, adherent)	0.766	6.86	0.983	> 8	0.629	2.42	0.91	> 10.2	0.851	15.6	0.688	2.31	0.456	0.093	0.956	> 5
HC-1 (hairy cell leukaemia, suspension)	0.358	0.413	0.962	> 8	0.877	15	0.464	0.513	0.911	> 16	0.7	2.22	0.836	1.25	0.974	> 5
HCC38 (breast, adherent)	0.641	2.54	0.98	> 8	0.926	> 16	0.733	3.14	0.949	> 16	0.663	1.85	0.767	0.802	0.953	> 5
HCC70 (breast, adherent)	0.969	> 16	0.973	> 8	0.884	> 16	0.901	> 10.2	0.984	> 16	0.93	> 10	0.686	0.41	0.987	> 5
HCC1143 (breast, adherent)	0.932	> 16	0.778	4.67	0.869	> 16	0.714	3.32	0.979	> 16	0.798	7.11	0.607	0.276	0.965	> 5
HCC1187 (breast, suspension)	0.953	> 16	0.967	> 8	0.841	10.3	0.761	3.47	0.972	> 16	0.545	0.821	0.556	0.176	0.793	2.15
HCC1395 (breast, adherent)	0.965	> 16	0.943	> 8	0.959	> 16	0.953	> 10.2	0.982	> 16	0.801	6.06	0.61	0.267	0.972	> 5
HCC1428 (breast, adherent)	0.967	> 16	0.909	> 8	0.955	> 16	0.979	> 10.2	0.981	> 16	0.88	> 10	0.949	> 2	0.986	> 5
HCC1500 (breast, adherent)	0.933	> 16	0.961	> 8	0.87	15.8	0.975	> 10.2	0.986	> 16	0.929	> 10	0.955	> 2	0.983	> 5
HCC1569 (breast, adherent)	0.665	3.37	0.964	> 8	0.877	> 16	0.91	> 10.2	0.915	> 16	0.76	4.64	0.861	> 2	0.941	> 5
HCC1937 (breast, adherent)	0.814	10.4	0.961	> 8	0.932	> 16	0.928	> 10.2	0.953	> 16	0.888	> 10	0.641	0.327	0.958	> 5
HCC2157 (breast, suspension)	0.847	12.6	0.965	> 8	0.914	> 16	0.987	> 10.2	0.832	10.9	0.977	> 10	0.657	0.348	0.985	> 5
HCC2218 (breast, suspension)	0.96	> 16	0.984	> 8	0.713	4.74	0.981	> 10.2	0.983	> 16	0.944	> 10	0.979	> 2	0.981	> 5
HCC-44 (lung adenocarcinoma, adherent)	0.555	1.41	0.87	7.13	0.685	3.25	0.828	6.12	0.615	2.05	0.592	1.11	0.851	1.47	0.934	> 5
HCC-78 (lung adenocarcinoma, adherent)	0.737	5.41	0.968	> 8	0.815	10.7	0.94	> 10.2	0.983	> 16	0.72	2.97	0.705	0.526	0.926	> 5

From the supplement of paper PMC4967469
